In the supplement of paper PMC11417369:
± gives the standard deviation of the averaged measurements. This is one part of the list.

What follows are sequences tested on PfAP2-LT AP2 domain (GST-tagged) (assay: gcPBM binding intensity (ln(normalized median fluorescence intensity)); higher = stronger DNA binding).
Outline: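 DNA-binding domains from P. falciparum, fused to GST and produced in E. coli, were put on an Agilent 4 × 180k double-stranded probe array for 1 h in 1× PBS holding 1% milk, 0.2 mg/ml BSA, 0.5% salmon testes DNA and 0.03% Triton X-100. Probes were primer-extended, 36 bp long and drawn from intergenic genomic regions, with negative controls included. After Alexa488 anti-GST antibody detection and a 488 nm scan, binding intensity was set as the highest Masliner-normalised natural-log median intensity across replicate spots of either probe orientation.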

Row | Sequence | gcPBM binding intensity (ln)
1 | ATATATATATATTATATGCACACGTTAAAATTTCAT [CACACA_site709] | 9.09 ± 0.32
2 | GTATTACATGAGGACACACACAAAAAAAATATATAT [CACACA_site769] | 9.57 ± 0.51
3 | TAATTATTTTAAAAAGTGCATTAAAAGATATTAAAT [GTGCAC_site9694] | 8.31 ± 0.4
4 | TTATTATAAAAATGTAGTACAATACTTTTTTTTTTT [XGTACX_site732] | 8.35 ± 0.44
5 | ATATGTATCTCATCGTGTACATGTATATAATATATA [XGTACX_site4139] | 8.95 ± 0.35
6 | ATATAGTAAAGTTATACACACATGAATTTTCCCATG [CACACA_site6923] | 9.04 ± 0.42
7 | ATATATCAAAATAATTGTACAAATTTTATATAATTT [XGTACX_site7249] | 8.53 ± 0.47
8 | TTAGAAAAATTATATATACACACTTATATTTATATA [CACACA_site2821] | 8.56 ± 0.5
9 | TTAAAAAGATGTCACTGTACATAAAACATAAAATAT [XGTACX_site2886] | 8.94 ± 0.47
10 | TTTCATGACAATGTTTGTACATAATAAAATATATTT [XGTACX_site7039] | 8.59 ± 0.42
11 | TAAACAGACATATAAACACACATACATACATACATA [CACACA_site7215] | 9.41 ± 0.32
12 | AAAAAAAAAAAAAAAACACACATAAAACTATAATAA [CACACA_site7758] | 8.85 ± 0.57
13 | GAAGAGACTTAGAAAACACACATACATAAGATAATT [CACACA_site5333] | 9.08 ± 0.41
14 | CTTATACATATATATAGTACATATATCATTTTTATG [XGTACX_site4462] | 8.89 ± 0.61
15 | GTCATATATAATTGTTGTACATTTTTATAATTATGT [XGTACX_site8091] | 9.03 ± 0.47
16 | AATTTTCTTAAAATTTGTACGTATATATTTAATATA [XGTACX_site3906] | 8.54 ± 0.36
17 | AATATAAATGTGATTACACACAACACATTTAAATGT [CACACA_site1212] | 9.2 ± 0.34
18 | AAAAAATTATATTATGCACACATCGTTATATATATA [CACACA_site1201] | 9.04 ± 0.4
19 | TATATATACTATAACACACATACACCCAAAAAAAAA [CACACA_site536] | 9.3 ± 0.33

Row | Sequence | gcPBM binding intensity (ln)
20 | TGTTTTATTTAGAAGGTGCACATTAATATTAAATAA | 8.54 ± 0.45
21 | ATATGCATTTTTATACGTACATATTTCTTTTCGTTA [XGTACX_site1497] | 9 ± 0.4
22 | CATATTTTTATGAGATGTACAATAAGAAATATGTAA [XGTACX_site2389] | 8.57 ± 0.42
23 | ACAAAAGGGGAATACACACACATATATAAATAAATA [CACACA_site7111] | 9.59 ± 0.6
24 | TTCATAAGAAGGAACTGTACATATTTTTCATTTTTT [XGTACX_site6770] | 8.51 ± 0.52
25 | AACAGGTCATAATTTACACACTATATATCTTATTAT [CACACA_site6461] | 9.06 ± 0.43
26 | CGATTTTTTTTTTATTGTACTTGCTCGCATGCAATA [XGTACX_site4727] | 8.79 ± 0.46
27 | TGTATACCTTAATATACACACATACAGATATATATA [CACACA_site4860] | 8.96 ± 0.38
28 | TACAATCTTTCATTATGTACTTAACATTTTTTCTGT [XGTACX_site8752] | 8.85 ± 0.52
29 | TTATATGTATATATATGTATATATATATATATATAG [TGCATGCA_negctrl_site461] | 8.82 ± 0.2
30 | CATACAGATGGACACACACACACACCCACAGACAAA [CACACA_site4431] | 9.93 ± 0.36
31 | TTTTTTTTTTGATGCACACACCTGAACGAGTTAATA [CACACA_site4329] | 9.17 ± 0.44
32 | TTATCCTTGTAACAATGTACACATTATTTAATACTT [XGTACX_site1830] | 8.86 ± 0.52
33 | GCATAAACGGATAATTAATTATATTATATTATATCA [CACACA_negctrl_site1519] | 8.7 ± 0.48
34 | TCGTGAATGATTTAAGTACACACCGGTATTTATTCA [CACACA_site1564] | 9.04 ± 0.4
35 | ATTTATTTATATATATTATTTGTTTTAATTTACTTA [XGTACX_negctrl_site246] | 8.66 ± 0.54
36 | TATTGTTGTCTTTACACATGCAACAAAAGAAGAAAA [TGCATGCA_site911] | 8.58 ± 0.44
37 | TATTCTAATATTTATACACACATAACTTTGATAAAT [CACACA_site6418] | 8.75 ± 0.42
38 | TTTCTTGGGAGACATGCATGTACCAGAACAAAATAA [TGCATGCA_site272] | 8.79 ± 0.5

Row | Sequence | gcPBM binding intensity (ln)
39 | ATTAATTATTGTAATTGTACATTTTATATATATCCA [XGTACX_site2105] | 8.81 ± 0.45
40 | TATATATAGCATATTTCACACACACCGAATGAATAT [CACACA_site9182] | 9.42 ± 0.31
41 | CACCCATAGAAACACACACACGCATAAAAAAAAAAA [CACACA_site1513] | 9.56 ± 0.37
42 | TAAAAACAAAAATGCACACATAATAAGCATATGTAT [CACACA_site3469] | 9.14 ± 0.37
43 | TACAAAATAGTTTACACACACATATATATACATATA [CACACA_site2615] | 9.18 ± 0.28
44 | TTTATTTTTATGGTCACACATATTTTTAAAACTATA [CACACA_site4372] | 8.72 ± 0.43
45 | TTTTTTTTTTTATATACTGGAAATATATTTAATTTA [GTGCAC_negctrl_site250] | 8.26 ± 0.47
46 | TTTTTTTAATTTGGTTGTACTTAAAAAAAAAACAGA [XGTACX_site5788] | 8.03 ± 0.42
47 | GGTAAGTACGACTTGACACACATACCCATATATATA [CACACA_site4837] | 9.2 ± 0.55
48 | ACAGTATCTGGTAGCTGTACGAGTCGTAGAGTGCAG [XGTACX_site2015] | 9.04 ± 0.53
49 | GCGAAATATTATTATAGTATACAAATACTTCTATGA [CACACA_negctrl_site197] | 8.62 ± 0.42
50 | GGTGTTAAAAAATACACACACAAAAAAAAAAAAAAA [CACACA_site138] | 9.03 ± 0.54
51 | TAACTTGAATGGATATGTACATATATATATATATAT [XGTACX_site5990] | 9.91 ± 0.22
52 | ATTCATCTATTTTGTAGTACTAAATATATATCTACT [XGTACX_site8790] | 8.87 ± 0.4
53 | TAGATGTATGTACATACACACATATATAAATAAATA [CACACA_site1788] | 9.21 ± 0.47
54 | AATAAACATATATACACACACAAAAAAAAAAACATA [CACACA_site424] | 9.59 ± 0.5
55 | TTCTTCTGTTTTATTACACACCATTTTGTGGATACA [CACACA_site5181] | 9.12 ± 0.35
56 | TACCTAGGATTAAAGTGTCCACATAATTTAAATAAT [XGTACX_site6736] | 8.71 ± 0.5
57 | TATATAAATAGACACACACACATATAAATATAAATA [CACACA_site6503] | 9.69 ± 0.32
